# From PubChem BioAssay AID686979 (National Center for Advancing Translational Sciences (NCATS), 2013)
# Several values for one entry are separate records, joined by “and”; a condition that tells them apart may be missing. Equal values may be shown once. The campaign covered roughly 420,000 compounds. About 50,000 (12%) were called active. Inconclusive means that the source gave no clear call. Such entries were picked first, then a sample of the others. Calls follow the shape of the dose curve; as a rule, active = well fitted inhibition curve with a large enough effect; inconclusive = small, poorly fitted or top-dose-only effect; inactive = flat fitted curve, though single readings scatter. No potency is given beside an inconclusive call; the fits are too rough.
# Assay: qHTS for Inhibitors of human tyrosyl-DNA phosphodiesterase 1 (TDP1): qHTS in cells in presence of CPT; also: nearly all actives have a fitted effect of over 55% in size
# Details: chicken DT40 Tdp1-/-;hTDP1 cells + 20 nM CPT, ATP luminescence, 48 h; activity change, negative = growth inhibition: at 46.2 µM (top of the series)
# In short: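 Chicken DT40 Tdp1-/- cells complemented with human TDP1, 400 cells/well, exposed to compounds plus 20 nM camptothecin for at least 48 h at 37 C; viability read as ATP content by CellTiter-Glo luminescence.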
# % is scaled to controls: 0 for no effect and ±100 for the full control effect; potency is read from the fitted curve at half-maximal effect; tags tell the direction and shape of the fitted curve.
SMILES,Potency,"activity change, negative = growth inhibition"
CCOC(=O)C1CCN(c2c(Nc3ccc(C)c(C)c3)c(=O)c2=O)CC1,"inconclusive [inhibitor, single point]",–
Cc1sc2nc(C3CC3)nc(SCC(=O)N3c4ccccc4CC3C)c2c1C (stereo unspecified),active: 16.4 µM,–
COc1cccc(NC(=O)Cn2c(-c3cncs3)nc3ccccc32)c1,"inconclusive [inhibitor, single point]",–
C/C=N/NC(=O)CCNC(=O)c1ccccc1,–,inactive: 8.5%
CCNC(=S)Nc1nc2c(cc1C(=O)OCC)CCCC2,"inconclusive [inhibitor, single point]",–
CN(C)S(=O)(=O)c1ccc2c(c1)nnn2CCNC(=O)Nc1ccc(Cl)cc1,–,inactive: -23.2%
COc1ccc(C2CC(c3c(-c4ccccc4)c4cc(Cl)ccc4[nH]c3=O)=NN2S(C)(=O)=O)cc1 (stereo unspecified),"inconclusive [inhibitor, single point]",–
CCC(=O)c1ccc(N2CCN(C(=O)COc3ccccc3F)CC2)c(F)c1,"inconclusive [inhibitor, single point]",–
O=C(OCCOCCN=C1NS(=O)(=O)c2ccccc21)c1ccccc1,–,inactive: -5.07%
CCCN1CCc2c(sc(NC(=O)C3CCN(S(=O)(=O)c4cccs4)CC3)c2C(N)=O)C1,"inconclusive [inhibitor, single point]",–
Cc1ccc(NC(C(=O)c2ccccc2)c2ccccc2)cc1 (stereo unspecified),"inconclusive [inhibitor, single point]",–
O=C(NCc1cccc(Cl)c1)C1CCC(=O)N(CC2CCCCC2)C1 (stereo unspecified),"inconclusive [inhibitor, single point]",–
O=C(CN1CCN(c2ccc(Cl)cc2)CC1)c1ccc2c(c1)OCO2,"inconclusive [inhibitor, single point]",–
COc1cnc(-c2ccccn2)nc1Oc1c(C)cccc1C,active: 3.26 µM,–
CC(C)c1cc(C(=O)N2CCCC(CCC(=O)NCc3ccccc3F)C2)n(C)n1 (stereo unspecified),"inconclusive [inhibitor, partial curve]",–
COc1ccc(-n2nc(C(=O)NCC(=O)N3CCN(C)CC3)c3ccccc3c2=O)cc1,–,inactive: 5.44%
Cc1ccc(S(=O)(=O)Nc2ccc(C(=O)OCC(=O)N(CCC#N)c3ccccc3)cc2)cc1C,–,inactive: 6.62%
Cc1ccc(C(=O)C(c2ccccc2)N2Cc3ccccc3C2=N)cc1 (stereo unspecified),active: 10.3 µM,–
Cc1ccc(C)c(Oc2nc3c(c(=O)n(C)c(=O)n3C)n2Cc2ccccc2)c1,"inconclusive [inhibitor, single point]",–
O=C(Oc1cccc2ccccc12)c1ccncc1,–,inactive: 14.2%
Cc1ccc(/C=C/C(=O)Nc2cccc3ncccc23)o1,"inconclusive [inhibitor, single point]",–
CC1(S(=O)(=O)O)CC(=O)c2ccccc2C1=O (stereo unspecified),active: 13.3 µM and active: 7.31 µM,–
COc1cccc(C=CC(=O)C=CC=Cc2ccccc2)c1,active: 20.6 µM,–

SMILES,Potency,"activity change, negative = growth inhibition"
CC(=O)N1CCN(C(=O)CNC(=O)c2ccc(Br)o2)CC1,–,inactive: 3.46%
C[C@H](CO)N1C[C@H](C)[C@@H](CN(C)Cc2cccc(F)c2)Oc2cc(-c3cccc(C#N)c3)ccc2S1(=O)=O,"inconclusive [inhibitor, single point]",–
Cc1ccc(C)c(CSc2nnc([C@@H]3CCCN3)o2)c1,–,inactive: -7.23%
Cn1nc(C(F)(F)F)cc1Oc1ncc(C(F)(F)F)cc1Cl,–,inactive: -3.01%
COc1ccc(OC)c(NC(=O)c2ccc(NC3=NC4CS(=O)(=O)CC4S3)cc2)c1 (stereo unspecified),–,inactive: 6.71%
CCc1ccccc1NC(=O)COc1cccc(-n2cnnn2)c1,–,inactive: -1.2%
COC(=O)c1ccc(/C=N/NC(=O)c2ccccc2Cl)cc1,"inconclusive [inhibitor, single point]",–
CSc1nnc(N2C(=O)C(O)=C(C(=O)c3ccc(C)o3)C2c2ccc(C)cc2)s1 (stereo unspecified),"inconclusive [inhibitor, single point]",–
COc1cc(CNc2ccc3[nH]c(=O)[nH]c3c2)cc(Cl)c1OCc1ccccc1F,active: 11.6 µM,–
Cc1ccc(-c2nonc2NC(=O)c2ccco2)cc1C,"inconclusive [inhibitor, single point]",–
O=C(Nc1ccccc1-c1ccccc1)C12CC3CC(CC(C3)C1)C2,"inconclusive [inhibitor, single point]",–
OCC[C@@H]1C[C@H](O)[C@@H](O)[C@@]2(OCc3cc(Cl)ccc32)O1,–,inactive: -7.58%
CCN(CC(=O)NCc1ccc(F)cc1)C(=O)COc1ccc2ccccc2c1,"inconclusive [inhibitor, partial curve]",–
Cc1oc(C)c2c(=O)cc(-c3ccc4c(c3)OCO4)cc(OC(=O)c3ccc(Cl)cc3)c12,active: 20.6 µM,–
Cc1nn(-c2ccccc2)c(C)c1NC(=O)COc1ccc([N+](=O)[O-])cc1,"inconclusive [inhibitor, single point]",–
COc1ccc(C2C(C(=O)c3ccccc3)=C(C)Nc3nc4ccccc4n32)cc1OC (stereo unspecified),"inconclusive [inhibitor, single point]",–
Cc1ccc(CNC(=O)c2ccc3c(c2)N(Cc2cccc(C)c2)C(=O)CS3)cc1,"inconclusive [inhibitor, single point]",–
N/C(=N\OC(=O)Cc1ccc(Cl)cc1)c1ccccn1,–,inactive: -15%
CCN(CC)S(=O)(=O)c1cccc(N=Nc2sc(N)nc2C)c1,"inconclusive [inhibitor, partial curve]",–
Cc1ccc(-c2nn(CC(=O)Nc3cccc(C(F)(F)F)c3)c(=O)c3ccccc23)cc1,"inconclusive [inhibitor, single point]",–
COc1ccc(-c2nc3ccc(C)cn3c2Cc2ccccc2)cc1OC,active: 18.4 µM,–
COc1ccccc1Cn1c(CNS(=O)(=O)c2cccc([N+](=O)[O-])c2)nc2cccnc21,active: 20.6 µM,–
Cc1ccccc1-n1c(SCC(=O)NCc2cccs2)nc2ccccc2c1=O,"inconclusive [inhibitor, single point]",–
